Results as given in publication PMC4336329 (PLoS ONE, 2015).
The whole screen tested about 310,000 compounds, of which about 2,200 (0.71%) showed an effect of 50% or more. The effect is printed as a negative number. The list shows a part of the results.

These compounds were tested against human ether-à-go-go-related gene (hERG) potassium channel (human, UniProt Q12809) (assay: primary screen, population patch clamp on CHO cells stably expressing hERG).
human ether-à-go-go-related gene (hERG) potassium channel, sequence (Q12809 whole entry, looked up): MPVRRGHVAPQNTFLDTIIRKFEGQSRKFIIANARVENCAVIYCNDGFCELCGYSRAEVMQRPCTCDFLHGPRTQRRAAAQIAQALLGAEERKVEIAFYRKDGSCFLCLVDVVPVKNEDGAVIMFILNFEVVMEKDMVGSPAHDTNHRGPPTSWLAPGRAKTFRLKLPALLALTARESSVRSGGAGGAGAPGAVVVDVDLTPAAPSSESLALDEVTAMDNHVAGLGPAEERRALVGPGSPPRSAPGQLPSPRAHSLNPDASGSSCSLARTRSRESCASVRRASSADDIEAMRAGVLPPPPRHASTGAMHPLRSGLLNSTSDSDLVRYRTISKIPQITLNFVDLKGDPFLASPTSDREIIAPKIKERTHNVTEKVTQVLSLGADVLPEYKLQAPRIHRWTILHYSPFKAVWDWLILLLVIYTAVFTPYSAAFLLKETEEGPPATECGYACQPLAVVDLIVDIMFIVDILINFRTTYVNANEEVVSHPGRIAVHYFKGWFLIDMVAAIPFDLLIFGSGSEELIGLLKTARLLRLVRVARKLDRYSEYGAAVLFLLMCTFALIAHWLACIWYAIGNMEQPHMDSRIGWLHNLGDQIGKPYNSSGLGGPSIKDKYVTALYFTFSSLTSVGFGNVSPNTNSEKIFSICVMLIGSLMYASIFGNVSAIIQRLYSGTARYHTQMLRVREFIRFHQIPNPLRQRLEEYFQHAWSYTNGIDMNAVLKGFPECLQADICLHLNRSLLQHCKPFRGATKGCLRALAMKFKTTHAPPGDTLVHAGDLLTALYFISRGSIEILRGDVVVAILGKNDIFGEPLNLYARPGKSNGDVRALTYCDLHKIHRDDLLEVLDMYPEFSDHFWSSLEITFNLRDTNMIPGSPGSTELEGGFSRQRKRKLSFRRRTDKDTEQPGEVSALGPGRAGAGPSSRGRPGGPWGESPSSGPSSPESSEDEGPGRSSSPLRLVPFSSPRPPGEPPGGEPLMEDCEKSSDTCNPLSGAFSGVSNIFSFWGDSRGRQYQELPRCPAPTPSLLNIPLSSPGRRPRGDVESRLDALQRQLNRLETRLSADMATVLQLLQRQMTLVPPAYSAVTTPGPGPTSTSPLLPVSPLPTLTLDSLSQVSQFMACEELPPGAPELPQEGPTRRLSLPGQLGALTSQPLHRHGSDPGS

SMILES | hERG current change (%, negative = inhibition) at 1uM [%]
CC(C)C(=O)NC(=S)Nc1ccc(S(=O)(=O)N2CCN(C)CC2)cc1 | 5.81
Cc1cc(OC(=O)c2ccccc2Cl)ccc1N1C(=O)CCC1=O | -0.508
COc1ccc(C(=O)NCC(=O)OCC(=O)N2CC(C)CC(C)C2)cc1 (centres unmarked) | 0.543
CN1c2ccccc2C(O)=C(C(=S)Nc2ccc(Cl)cc2)S1(=O)=O | -1.95
Cc1ccccc1-c1nc2ccccc2c(=O)n1C1CCS(=O)(=O)C1 (centres unmarked) | 13.5
CSc1ccc(C(=O)C2CCCN(C)C2)cc1 (centres unmarked) | -3.51
CCOc1ccc(CCNC(=O)COC(=O)C2CCN(c3ccc(C(F)(F)F)cn3)CC2)cc1OCC | 8.9
COc1cc(OC)cc(-c2nc3nc(C)c(CCC(=O)O)c(C)n3n2)c1 | 4.63
CCCc1nc(SCC(=O)N2CCCc3ccccc32)c2c(=O)n(C)c(=O)n(C)c2n1 | 0.825
Fc1ccc(CNc2nc3ccccc3n3nnnc23)cc1 | 7.24
Cc1ccnc(NS(=O)(=O)c2ccc(NC(=O)c3ccccc3F)cc2)n1 | 16.4
COc1ccccc1-c1cc(C(=O)Nc2cccnc2)no1 | -3.46
Cc1ccc2c(C(=O)CN3CCC4(CC3)OCCO4)c(C)[nH]c2c1 | 5.43
S=c1[nH]nc(-c2cccc(Cl)c2)n1CCN1CCCCC1 | 8.03
Cc1ccc(NP(=O)(Oc2ccccc2F)Oc2ccccc2F)cc1 | -1.69
O=[N+]([O-])c1ccc(N2CCN(C(=S)NC3CCCCC3)CC2)cc1 | -33.9
O=C(N/N=C/c1ccc(OCC2COCCO2)cc1)c1ccc(Br)cc1 (centres unmarked) | 8.38
COc1ccc(-n2c(=O)c3ccccc3n(CC(=O)OCc3ccccc3)c2=O)cc1OC | 3.52
CNC(=S)Nc1cccc(-c2cnc3ccccc3n2)c1 | 3.1

SMILES | hERG current change (%, negative = inhibition) at 1uM [%]
S=C(NCCN1CCOCC1)Nc1ccc(Nc2ccccc2)cc1 | 5.73
Cc1cccc(NC(=S)NC(=O)/C=C/c2ccccc2)n1 | 15.1
CCOC(=O)Nc1ccc2c(CN3CCC(C(=O)OC)CC3)cc(=O)oc2c1 | 15.1
COc1ccc(NC(=O)Cn2nnc(-c3ccccc3F)n2)cc1 | 8.09
COc1ccc(CCNC(=O)COc2ccc(S(=O)(=O)NC(C)C)cc2)cc1OC | 9.7
CC(C)[C@H](NC(=O)N1CC(=O)Nc2ccccc21)C(=O)N[C@@H](Cc1ccccc1)C(=O)O | 9.61
COC(=O)CN1C(=O)[C@H]2[C@@H](c3ccc(C)o3)N3C(=O)CN(CCO)C(=O)[C@@]3(Cc3ccccc3)[C@H]2C1=O | 1.88
C(=N\Nc1ccccn1)/c1ccc2c(c1)OCCO2 | 10.2
Fc1cccc(Cl)c1CSc1ccc(-c2ccco2)nn1 | 6.26
O=C(CSc1nc2ccccc2s1)Nc1ncccn1 | 19.2
O=C(Nc1ccc2[nH]ncc2c1)c1ccc(F)cc1 | 15.2
O=C(Cn1ccc([N+](=O)[O-])n1)NCc1nc2ccccc2[nH]1 | 9.95
O=C(NCCc1ccccc1)c1nccc2ccccc12 | 4.55
COc1cc(Cl)c(C)cc1NC(=O)Cc1ccc(OC)c(OC)c1 | 7.76
O=C(NCCCN1CCOCC1)C(=O)N/N=C/c1ccccc1Cl | 10.5
CC(=O)N/C(=C\c1ccc(F)cc1)C(=O)OCc1ccccc1 | -8.34
O=C(O)c1cccc(NS(=O)(=O)c2ccc(-c3ccc(S(=O)(=O)Nc4cccc(C(=O)O)c4)cc3)cc2)c1 | 15.4
CN(CC(=O)Nc1ccc(Cl)c(C(F)(F)F)c1)C(=O)CCN1C(=O)C2CCCCC2C1=O (centres unmarked) | -8.71
Cc1ccc(Cn2c(=O)c3ccccc3n3c(CCC(=O)O)nnc23)cc1 | 9.33

SMILES | hERG current change (%, negative = inhibition) at 1uM [%]
COc1ccc(S(=O)(=O)N(C)c2ccc(C(=O)NCc3ccco3)cc2)cc1OC | 0.0226
Cc1ccc(OCC(=O)NC2CCS(=O)(=O)C2)c(C)c1 (centres unmarked) | 10.3
CN1CCS/C1=C/C=C1/SC(=S)N(Cc2ccccc2)C1=O | 6.26
Cc1ccc(N(CC(=O)NN=C2CCN(C)CC2)S(=O)(=O)c2ccc(C)cc2)cc1 | 8.98
CC(=O)Nc1cccc(C(=O)OC(C)C(=O)NC(=O)NC2CCCCC2)c1 (centres unmarked) | 5.18
COc1ccccc1-c1ccc(SCC(=O)N2CCOCC2)nn1 | 5.03
Cc1sc(NC(=O)C2=COCCO2)c(C(N)=O)c1C | 10.4
CCC(=O)C1CCCN(C(=O)c2ccc3nc(-c4cccc(OC)c4)oc3c2)C1 (centres unmarked) | -3.75
COc1ccc(C2CC2/C(=N/O)c2ccccc2)cc1 (centres unmarked) | 14.2
Cc1c(NC(=O)C2CCCN2S(=O)(=O)c2cccc3nsnc23)cccc1C(=O)O (centres unmarked) | 10.5
Nc1ccccc1-c1nc2ccccc2s1 | 6.32
Cc1ccnc2nc(C(=O)Nc3nc4ccccc4s3)nn12 | 3.78
COc1ccc(/C=C2\SC(=S)N(N3CCOCC3)C2=O)c(OC)c1 | 10.2
O=C(c1ccccc1)C1CCN(C(=O)c2ccco2)CC1 | 7.07
CC(=O)Nc1ccc(/C=N/NC(=O)c2cc(-c3ccco3)nc3ccccc23)cc1 | 12.6
Cc1cc(OCC(=O)O/N=C(\N)c2ccccc2)cc(C)c1Cl | -0.13
Cl.O=C(CCN1CCc2ccccc21)c1ccc2c(c1)OCCO2 | 9.89
OCC[C@H]1C[C@H](O)[C@@H](O)[C@@]2(Cc3ccccc3CO2)O1 | 13.7
